Measured values as given in PubChem BioAssay AID624296 (National Center for Advancing Translational Sciences (NCATS), 2012).
In all, about 350,000 compounds went through this assay and about 9,900 (2.8%) were called active. This list was built around the results that the source calls inconclusive (neither active nor inactive); the mix of calls is not that of the screen. Calls follow the shape of the dose curve; as a rule, active = well fitted activation curve with a large enough effect; inconclusive = small, poorly fitted or top-dose-only effect; inactive = no such curve, though single readings can be large or run the other way. Potencies of inconclusive entries are left out as doubtful fits.

Assay: A quantitative high throughput screen for small molecules that induce DNA re-replication in MCF 10a normal breast cells. Also: nearly all actives have a fitted effect of over 50% in size. As to activity, positive = re-replication: % of control where 0% means no effect.
Conditions: MCF 10A DNA re-replication, Hoechst nuclear intensity, 48 h; activity, positive = re-replication: at 46.1 µM (top of the series)
Potency is read from the fitted curve at half-maximal effect; tags tell the direction and shape of the fitted curve.

Structure (SMILES)	activity, positive = re-replication	Potency
O=C1NC2(CCCCO2)CO1 (configuration not stated)	inactive: -17.6%	–
Cn1cnnc1SCC(=O)Nc1ccc2nc(SCc3cccc4ccccc34)sc2c1	–	inconclusive [activator, full curve]
O=c1[nH]c2ccccc2n2c(-c3ccccc3)nnc12	–	inconclusive [activator, single point]
Cc1ccc(C(=O)c2cn[nH]c2-c2ccccc2O)cc1	–	inconclusive [activator, partial curve, poor fit]
N/C(=N\OC(=O)c1ccccc1Cl)c1cccc([N+](=O)[O-])c1	inactive: 0.0183%	–
CC(C)NC(=O)c1c(O)c2cccc3c2n(c1=O)CCC3	inactive: -1.95%	–
COc1ccc(OC)c(C(=O)c2ccc(C(=O)Nc3ccc(NC(C)=O)cc3)cc2)c1	inactive: 3.03%	–
CCC(C)C(=O)Nc1ccccc1N1CCN(c2ccc(F)cc2)CC1 (configuration not stated)	–	inconclusive [activator, single point]
Cc1ccccc1C(=O)N1CCC(C(=O)Nc2cc(C(F)(F)F)ccc2N2CCCC2)CC1	inactive: 2.29%	–
COC(=O)c1c(-c2ccc(SC)cc2)sc2ccc(OC)cc12	–	inconclusive [activator, full curve, poor fit]
Cc1nc2ccccc2c2nc(NC(=O)Cc3ccccc3)nn12	inactive: 22.2%	–
COc1ccc(-c2cc(=O)oc3c(C)c(OCC(=O)NCCCn4ccnc4)ccc23)cc1	–	inconclusive [activator, full curve, poor fit]
O=C(CCc1c[nH]c2ccccc12)N1CCN(c2ccc(O)cc2)CC1	–	inconclusive [activator, partial curve, poor fit]
C=CCn1c(CCC(O)CCCCC)n[nH]c1=S (configuration not stated)	–	inconclusive [activator, single point]
CC(C)(C)C(=O)O/N=C(\N)c1ccc(Oc2cc(Cl)cc(Cl)c2)c([N+](=O)[O-])c1	inactive: 5.01%	–
CCOC(=O)Nc1ccc2c(CN3CCC(C(=O)OC)CC3)cc(=O)oc2c1	inactive: -13%	–
Cc1ccc(NC(=O)c2ncn(CC(=O)NCc3ccccc3)n2)cc1C	–	inconclusive [activator, full curve, poor fit]
COCCNC(=O)c1ccc(Cl)c(S(=O)(=O)Nc2cccc(C)c2C)c1	inactive: 1.07%	–
Nc1nccnc1C(=O)OCC(=O)c1ccc[nH]1	inactive: 0.0912%	–
O=C(NCCc1ccc(Cl)cc1)C1CCCN1C(=O)Nc1ccccc1 (configuration not stated)	inactive: -5.76%	–
O=C(c1cccs1)N(Cc1cccc(F)c1)C1CCS(=O)(=O)C1 (configuration not stated)	inactive: 6.9%	–
COc1ccccc1N1CCN(CC(=O)c2c[nH]c3ccccc23)CC1	inactive: -6.04%	–
